Experimental data: PubChem BioAssay AID1347165 (National Center for Advancing Translational Sciences (NCATS), 2019)
“And” between values parts separate entries of the source, which are not always exact repeats. Equal entries are not always repeated. Hit rate of the full screen: of about 220,000 compounds, about 5,700 (2.6%) were called active. This list was built around the results that the source calls inconclusive (neither active nor inactive); the mix of calls is not that of the screen. Calls follow the shape of the dose curve; as a rule, active = well fitted inhibition curve with a large enough effect; inconclusive = small, poorly fitted or top-dose-only effect; inactive = no such curve, though single readings can be large or run the other way. Potencies beside an inconclusive call are fits to weak or partial responses and may not hold up.

target: Lysine-specific demethylase 5B (Homo sapiens) (UniProt Q9UGL1); assay: Primary screen for KDM5B Histone Demethylases FDH-coupled qHTS; conditions: FDH-coupled NADH fluorescence (FDH is formaldehyde dehydrogenase); activity change, negative = inhibition: at 57.7 µM (top of the series) unless noted; also: nearly all actives have a fitted effect of over 70% in size; as to activity change, negative = inhibition: 0% is about no effect
UniProt Q9UGL1, sequence (Q9UGL1 whole entry, looked up): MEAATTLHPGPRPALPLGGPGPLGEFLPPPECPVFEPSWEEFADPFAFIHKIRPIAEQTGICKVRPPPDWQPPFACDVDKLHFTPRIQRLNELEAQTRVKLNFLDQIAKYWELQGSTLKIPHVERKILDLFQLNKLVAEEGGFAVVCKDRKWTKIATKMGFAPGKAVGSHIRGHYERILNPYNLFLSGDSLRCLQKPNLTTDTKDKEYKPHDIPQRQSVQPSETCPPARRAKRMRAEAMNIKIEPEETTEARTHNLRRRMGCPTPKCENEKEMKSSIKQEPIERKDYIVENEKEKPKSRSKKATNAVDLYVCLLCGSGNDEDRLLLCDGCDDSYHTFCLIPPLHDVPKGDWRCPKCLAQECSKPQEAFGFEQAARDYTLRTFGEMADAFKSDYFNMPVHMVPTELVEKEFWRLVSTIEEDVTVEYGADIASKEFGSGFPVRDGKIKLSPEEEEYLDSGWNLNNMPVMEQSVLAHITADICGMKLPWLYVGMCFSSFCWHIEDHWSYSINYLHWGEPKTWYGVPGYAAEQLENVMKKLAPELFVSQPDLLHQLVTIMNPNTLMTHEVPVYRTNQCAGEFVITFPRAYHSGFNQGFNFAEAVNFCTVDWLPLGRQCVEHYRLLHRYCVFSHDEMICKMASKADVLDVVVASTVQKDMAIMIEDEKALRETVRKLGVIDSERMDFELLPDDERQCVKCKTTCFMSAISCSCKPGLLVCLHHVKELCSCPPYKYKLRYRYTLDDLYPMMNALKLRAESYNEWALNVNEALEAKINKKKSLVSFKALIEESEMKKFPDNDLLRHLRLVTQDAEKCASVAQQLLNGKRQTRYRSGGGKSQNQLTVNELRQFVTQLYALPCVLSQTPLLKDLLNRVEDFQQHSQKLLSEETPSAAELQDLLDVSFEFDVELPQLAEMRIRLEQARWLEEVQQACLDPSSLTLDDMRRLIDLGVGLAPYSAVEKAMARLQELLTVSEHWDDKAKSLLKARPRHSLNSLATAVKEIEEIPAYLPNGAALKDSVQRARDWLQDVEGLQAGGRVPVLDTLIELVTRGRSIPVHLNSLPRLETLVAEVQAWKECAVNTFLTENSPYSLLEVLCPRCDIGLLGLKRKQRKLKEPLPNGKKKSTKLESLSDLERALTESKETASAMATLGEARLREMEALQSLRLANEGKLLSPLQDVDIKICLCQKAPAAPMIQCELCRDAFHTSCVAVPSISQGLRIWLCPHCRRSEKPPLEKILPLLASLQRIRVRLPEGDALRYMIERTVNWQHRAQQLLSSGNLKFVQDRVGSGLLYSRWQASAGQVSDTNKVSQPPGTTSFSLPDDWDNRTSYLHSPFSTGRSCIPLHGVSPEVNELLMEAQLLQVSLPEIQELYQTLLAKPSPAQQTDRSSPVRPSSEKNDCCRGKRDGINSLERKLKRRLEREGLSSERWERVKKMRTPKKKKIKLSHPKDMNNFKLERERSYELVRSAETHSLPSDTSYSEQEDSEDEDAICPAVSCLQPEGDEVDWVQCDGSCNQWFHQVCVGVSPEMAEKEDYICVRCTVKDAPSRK
Summary of the method: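 Here, H3K4me3 peptide (12.5 µM in substrate mix) is demethylated by KDM5BΔAP, 200 nM final, after 10 min compound exposure. Formaldehyde product is coupled through FDH (0.25 U/mL in mix) to NADH fluorescence; 30-min ΔRFU feeds dose-response curves.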
Potency is read from the fitted curve at half-maximal effect; tags tell the direction and shape of the fitted curve.

Compound	Potency	activity change, negative = inhibition
CCCNC(=O)c1ccc(NC(=O)c2ccc(F)cc2)cc1	inactive	
NC(=S)NNC(=O)Nc1ccccc1	inactive	
O=C(CCC1CCCN(S(=O)(=O)c2ccccc2F)C1)NC1CCCCC1 (centres undefined)	inconclusive: 11.2 µM [inhibitor, partial curve, poor fit]	
O=C(COc1ccccc1)NCCC1CCN(C(=O)Nc2ccccc2)CC1	inactive	
O=C(N[C@H]1C[C@H]2C(=O)NC[C@@H](CCC(=O)N3CCN(c4ccccc4)CC3)N2C1)c1ccco1	inconclusive: 22.4 µM [inhibitor, single point]	
NC(=O)NNC(=S)Nc1ccccc1	inactive	
COCCN(C(=O)CCC(=O)Nc1cc(C)on1)C(C(=O)NC(C)(C)C)c1cccc(OC)c1OC (centres undefined)	inactive	
CCN(CC)CCCNC(=O)c1nn(-c2ccc(C)cc2)c(=O)c2c1c1ccccc1n2C	inconclusive: 31.6 µM [inhibitor, partial curve, poor fit]	
Cn1cc(-c2cnc3[nH]cc(CC(=O)Nc4ccc(N5CCOCC5)cc4)c3c2)cn1	inconclusive: 39.8 µM [inhibitor, single point]	
CCCCN(C)CCCNC(=O)Cn1ncc2c3ccccc3n(Cc3cc(C)ccc3C)c2c1=O	inconclusive: 25.1 µM [inhibitor, partial curve, poor fit]	
Cc1ccc(C2CCN(C(=O)Nc3ccc(F)cc3)C2)cc1 (centres undefined)	inactive	
O=C(Nc1cccnc1)c1cc(-c2ccccc2F)cc2c1OCCN2Cc1cccnc1	active: 35.5 µM	
Cc1cc(C)c2c(n1)sc1c(=O)n(-c3cc(Cl)ccc3C)nnc12	inconclusive: 31.6 µM [inhibitor, single point]	
COc1ccc(C)cc1NC(=O)c1cnc(N2CCOCC2)c2ccccc12	inactive	
O=c1[nH]nc(SCc2nc(-c3ccccc3)no2)n2nc(-c3ccco3)cc12	inactive	
COc1ccc(-n2cc(-c3ccnc(NCCC4CCCN4C)n3)cn2)cc1 (centres undefined)	active: 28.2 µM	
CCCN1C(=O)CCc2cc(NC(=O)c3ccn(CC)n3)ccc21	inconclusive: 12.6 µM [inhibitor, partial curve, poor fit]	
COc1ccc(N2CCN(C(C)C(=O)N(C)Cc3ccccc3)CC2)cc1 (centres undefined)	inactive	
CCc1ccccc1-n1nc(-c2c(C)nc3scc(CC(=O)NCCC(C)C)n3c2=O)cc1C	active: 25.1 µM	
Cc1cc(C)n(C)c(=O)c1C(=O)N[C@@H]1COCC[C@@H]1OCc1ccccc1	inactive	
Clc1cc(N2CCN(c3ncccn3)CC2)n2nccc2n1	inconclusive: 56.2 µM [inhibitor, single point]	
Cc1cc(-c2ccc(C=O)o2)ccc1Br	inconclusive: 20 µM [inhibitor, partial curve, poor fit]	
CCc1nnc2sc(-c3ccc(NC(=O)C(c4ccccc4)c4ccccc4)cc3)nn12	inconclusive: 12.6 µM [inhibitor, partial curve, poor fit]	

Compound	Potency	activity change, negative = inhibition
CC(C)c1nc2c(c(-c3ccc(O)cc3)n1)CN(CC1CC1)CC2	inconclusive: 15.8 µM [inhibitor, partial curve, poor fit]	
CC1(C)c2ccccc2-c2nc3ccccc3cc2C1O (centres undefined)	inconclusive: 10 µM [inhibitor, partial curve, poor fit]	
COCCCNC(=O)c1ccc(Cn2c(SCc3cccc(C)c3)nc3cccnc32)cc1	inconclusive: 31.6 µM [inhibitor, partial curve, poor fit]	
CC1=C[C@@H](CNC(=O)c2ccncc2)[C@H](C(C)C)C[C@H]1CC(=O)N1CCOCC1	inactive	
CN(Cc1ccc(Cl)c(Cl)c1)C(=O)CN1CCN(c2oc(-c3ccco3)nc2C#N)CC1	inconclusive: 14.1 µM [inhibitor, single point]	
COCCCNC(=O)Cc1c(C)c2c(cc(C)c3c(C(C)(C)C)coc32)oc1=O	inconclusive: 25.1 µM [inhibitor, partial curve, poor fit]	
NS(=O)(=O)c1ccc(NC(=O)c2cc(-c3cccs3)nc3ccccc23)cc1	inconclusive: 31.6 µM [inhibitor, partial curve, poor fit]	
C[C@H](O)[C@@H]1CN2CCc3c([nH]c4cccc(-c5ccccc5)c34)[C@@H]2C[C@@H]1N(C)C(=O)C1CCCCC1	inconclusive: 22.4 µM [inhibitor, partial curve, poor fit]	
C[S+](=O)([O-])NC1CCN(c2nc3ncccc3o2)CC1	inconclusive: 31.6 µM [inhibitor, partial curve, poor fit] and active: 35.5 µM	
O=C(CCC(F)(F)F)N1CCc2nc(-c3ccc(Cl)cc3)[nH]c2C1	inconclusive: 17.8 µM [inhibitor, partial curve, poor fit]	
COc1ccccc1CCC(=O)N1C[C@@H](CO)[C@H](c2ccncc2)C1	inactive	
COc1ccc(Cl)cc1NC(=O)c1nc2ccccc2nc1N1CCCC1	inactive	
Cc1c(CCNC(=O)c2ccc3c(c2)OCO3)sc2nc(-c3ccc(F)cc3)nn12	inconclusive: 22.4 µM [inhibitor, partial curve, poor fit]	
O=C(Cc1c[nH]c2ccccc12)Nc1cc(S(=O)(=O)N2CCOCC2)ccc1N1CCCC1	inactive	
Cc1cc(C)c(SC(C)C(=O)NC2CC2)c(C)c1 (centres undefined)	inactive	
COc1ccccc1NC(=O)c1cc(N)cc(C(=O)Nc2ccccc2OC)c1	inconclusive: 39.8 µM [inhibitor, single point]	
COc1ccc(OC)c(NC(=O)Cn2nc3c(cc2=O)CCCC3)c1		inconclusive: -31.6% [inhibitor]
CN1CC(=O)N(C2CCCNCC2)Cc2c(NCC(C)(C)C)ncnc21 (centres undefined)	inactive	
COc1cc(F)ccc1-c1cc(-c2ccc(=O)[nH]c2)c2cncn2c1	inconclusive: 39.8 µM [inhibitor, partial curve, poor fit]	
O=C(OCc1nc2ccccc2o1)c1ccc(CO)cc1	inactive	
O=[S+]1([O-])NCC2(CCN(Cc3ccsc3)CC2)Oc2ncccc21	inconclusive: 44.7 µM [inhibitor, partial curve, poor fit]	
C=CCSc1nc2c(c(=O)[nH]c(=O)n2C)n1CC(=C)C	inactive	
COc1cc(-c2ccno2)ccc1S(=O)(=O)N1CCN(c2cccc(Cl)c2)CC1	inconclusive: 35.5 µM [inhibitor, single point]	

Compound	Potency	activity change, negative = inhibition
CN(C)c1ccc(CN2CC[C@H](c3nc4ccc(C#N)cc4[nH]3)C2)cc1	inconclusive: 39.8 µM [inhibitor, partial curve, poor fit]	
O=C(CCc1ccnc(N2CCOCC2)c1)NCCN1CCc2ccccc2C1	active: 25.1 µM	
CC(C)c1nc2nccc(-c3ccco3)n2n1	inconclusive: 28.2 µM [inhibitor, partial curve, poor fit]	
CNCc1nccs1	inconclusive: 44.7 µM [inhibitor, partial curve, poor fit]	
CC1=CC(c2ccccc2)n2nc(NC(=O)CCCC(=O)O)nc2N1 (centres undefined)	inconclusive: 10 µM [inhibitor, partial curve, poor fit]	
CC(C)NC(=O)NCc1c(-n2cccc2)sc2c1CCN(C)C2	inconclusive: 31.6 µM [inhibitor, partial curve, poor fit]	
Cc1ccc(F)cc1NC(=O)Cc1nc(-c2cccs2)oc1C	inconclusive: 25.1 µM [inhibitor, partial curve, poor fit]	
O=C(NCc1cccc(F)c1)c1cnc2c(c1)N(C(=O)Cc1ccc(O)cc1)CCC2	inconclusive: 31.6 µM [inhibitor, single point]	
CC(/C=C/c1ccccc1)=N/Nc1ccc(F)cc1F	inactive	
CCCOc1cccc(-c2cc(C(=O)NCCCN3CCOCC3)c3ccccc3n2)c1	inactive	
CC(=O)N1CCN([C@H]2[C@@H]3OC[C@@H](O3)[C@@H](NCc3ccco3)[C@@H]2O)CC1	inactive	
Cc1cc(Nc2cc(Cl)cc(Cl)c2)nc(-c2ccccc2O)n1	inactive	
C=CCc1cc(/C=C2\NC(=O)NC2=O)cc(OCC)c1OCc1ccc(F)cc1	inactive	
CCc1ccc(-c2cc(C(F)(F)F)n3ncc(C(=O)NCc4cn(CC)nc4C)c3n2)s1	inconclusive: 10 µM [inhibitor, partial curve, poor fit]	
CCOc1ccccc1C(=O)Nc1ccc2oc(=O)ccc2c1	inactive	
CCc1[nH]c2c(CNC(=O)CC3NC(=O)c4ccccc43)cc(C)cc2c1C (centres undefined)	inconclusive: 15.8 µM [inhibitor, single point]	
O=C(N/N=C/c1ccccc1O)c1cc[n+]([O-])cc1	inconclusive: 12.6 µM [inhibitor, partial curve, poor fit]	
CCN(c1cccc(C)c1)C1C(=O)c2ccccc2N1C(C)=O (centres undefined)	inconclusive: 20 µM [inhibitor, partial curve, poor fit]	
COc1ccc(CNC(=O)c2ccc3c(c2)N=C(C)c2c(C)ccc(C)c2S3)cc1	inconclusive: 31.6 µM [inhibitor, partial curve, poor fit]	
COC(=O)Nc1ccc(S(=O)(=O)Nc2cc(C(F)(F)F)c[nH]c2=O)cc1	inconclusive: 25.1 µM [inhibitor, partial curve, poor fit]	
c1ccc(OCC2CN(Cc3ccncc3)CC23CN(c2ccccc2)C3)cc1 (centres undefined)	active: 31.6 µM	
COc1ccc(C(C)=O)cc1CC(=O)OCc1ccc(C#N)cc1	inactive	
COc1cccc(-c2cc(C(=O)N/N=C/c3cccc(OC)c3OC)c3ccccc3n2)c1	inconclusive: 35.5 µM [inhibitor, single point]	
